This is an account of results in the supplement of paper PMC4604168 (melanoma cell lines).

This is one part of the list. Most values come without repeats; read them as rough.

Test systems include WM115; WM1716; WM1745; WM3526; WM3619; WM451Lu.
Assay in all cases: cell count relative to DMSO control; melanoma cells; higher = more viable cells
What all share (details): library dose: low library concentration; 72 h
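Further: cell number obtained by counting DAPI-stained nuclei in high-throughput microscope images with image analysis software, screen run in 1,536-well plates.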

Regarding `C=CCNC1=C2C[C@@H](C)C[C@H](OC)[C@H](O)[C@@H](C)/C=C(\C)[C@H](OC(N)=O)[C@@H](OC)/C=C\C=C(/C)C(=O)NC(=CC1=O)C2=O` [Tanespimycin] + Clc1ccc(Nc2nnc(Cc3ccncc3)c3ccccc23)cc1 [vatalanib] (first compound 0.002 µM, partner dose 2 µM), the cell count in the test with WM115 came out at 82%; with WM1716, 98.8%; in the test with WM1745, 75.2%; with WM3526, 92.4%; with WM3619, 59.2%; in the test with WM451Lu, 79.2%.
With `CNC(=O)c1cc(Oc2ccc(NC(=O)Nc3ccc(Cl)c(C(F)(F)F)c3)cc2)ccn1` [sorafenib] + CN(NC(=O)CC(=O)NN(C)C(=S)c1ccccc1)C(=S)c1ccccc1 [STA4783] (first compound 0.4 µM, partner dose 0.006 µM), the cell count with WM115 was 82.4%; in the test on WM1716, 60.2%; with WM1745, 21.1%; in the test with WM3526 it was 88.1%; in the test on WM3619 it was 44.5%; with WM451Lu it was 79.3%.
Take `CNC(=O)c1cc(Oc2ccc(NC(=O)Nc3ccc(Cl)c(C(F)(F)F)c3)cc2)ccn1` [sorafenib] + Nc1ncn([C@H]2C[C@H](O)[C@@H](CO)O2)c(=O)n1 [decitabine] (first compound 0.4 µM, partner dose 0.1 µM): the cell count amounted to 93.3% in the test with WM115; 76.6% in the test on WM1716; 88.4% with WM1745; 94.9% in the test with WM3526; 82.3% in the test with WM3619; 104% with WM451Lu.
`CN1CCN(c2ccc3nc(-c4c(N)c5c(F)cccc5[nH]c4=O)[nH]c3c2)CC1` [Dovitinib] + Nc1nc(F)nc2c1ncn2[C@@H]1O[C@H](CO)[C@@H](O)[C@@H]1O [fludarabine] (first compound 0.1 µM, partner dose 0.2 µM): the cell count in the test with WM115 is 88.4%; with WM1716, 125%; in the test on WM1745, 94.6%; in the test on WM3526, 32.5%; with WM3619, 86.7%; in the test on WM451Lu, 56.7%.
Consider `CS(=O)(=O)CCNCc1ccc(-c2ccc3ncnc(Nc4ccc(OCc5cccc(F)c5)c(Cl)c4)c3c2)o1` [lapatinib] + COc1cc2ncnc(Nc3ccc(Oc4ccccc4)cc3)c2cc1OC [SrcI1] (first compound 0.8 µM, partner dose 2 µM), for which the cell count worked out at 101% in the test on WM115; 135% with WM1716; 97.5% in the test with WM1745; 105% in the test with WM3526; 95.7% in the test on WM3619; 95.1% in the test on WM451Lu.
Regarding `CN1CCN(c2ccc3nc(-c4c(N)c5c(F)cccc5[nH]c4=O)[nH]c3c2)CC1` [Dovitinib] + CN(C)S(=O)(=O)c1ccc2c(c1)/C(=C/c1cc3c([nH]1)CCCC3)C(=O)N2 [SU6656] (first compound 0.1 µM, partner dose 0.4 µM), the cell count with WM115 is 74.4%; in the test with WM1716 it was 83.4%; in the test with WM1745, 69%; with WM3526, 68%; in the test with WM3619, 129%; in the test with WM451Lu it was 91.7%.
On to `C[C@@H](Oc1cc(-c2cnn(C3CCNCC3)c2)cnc1N)c1c(Cl)ccc(F)c1Cl` [Crizotinib] + COc1cc2c(Oc3ccc4[nH]c(C)cc4c3F)ncnc2cc1OCCCN1CCCC1 [cediranib] (first compound 0.2 µM, partner dose 0.4 µM), for which the cell count in the test on WM115 is 99.5%; with WM1716, 113%; in the test on WM1745 it was 97%; with WM3526 it was 102%; in the test on WM3619, 121%; with WM451Lu, 91.7%.
`CN1CCN(c2ccc3nc(-c4c(N)c5c(F)cccc5[nH]c4=O)[nH]c3c2)CC1` [Dovitinib] + Cn1cncc1[C@@](N)(c1ccc(Cl)cc1)c1ccc2c(c1)c(-c1cccc(Cl)c1)cc(=O)n2C [tipifarnib] (first compound 0.1 µM, partner dose 0.01 µM): the cell count was determined as 83.4% with WM115; 64.4% with WM1716; 81.6% with WM1745; 65.3% with WM3526; 108% with WM3619; 78.6% in the test on WM451Lu.
Take `C[C@@H](Oc1cc(-c2cnn(C3CCNCC3)c2)cnc1N)c1c(Cl)ccc(F)c1Cl` [Crizotinib] + OCc1c[nH]c2ccccc12 [Indole-3-carbinol] (first compound 0.2 µM, partner dose 0.8 µM): the cell count in the test with WM115 was 90.4%; with WM1716, 102%; in the test with WM1745, 95%; in the test with WM3526, 114%; in the test with WM3619, 114%; in the test with WM451Lu, 83.2%.
Regarding `CS(=O)(=O)CCNCc1ccc(-c2ccc3ncnc(Nc4ccc(OCc5cccc(F)c5)c(Cl)c4)c3c2)o1` [lapatinib] + Cn1c(Nc2ccc(C(F)(F)F)cc2)nc2cc(Oc3ccnc(-c4ncc(C(F)(F)F)[nH]4)c3)ccc21 [CHIR265] (first compound 0.8 µM, partner dose 0.08 µM), the cell count in the test on WM115 was determined as 50.4%; with WM1716 it was 70.8%; with WM1745 it was 55.7%; in the test with WM3526 it was 57%; in the test on WM3619, 71.1%; in the test on WM451Lu, 94.1%.
Turning to `CN1CCN(c2ccc3nc(-c4c(N)c5c(F)cccc5[nH]c4=O)[nH]c3c2)CC1` [Dovitinib] + Cn1c(Nc2ccc(C(F)(F)F)cc2)nc2cc(Oc3ccnc(-c4ncc(C(F)(F)F)[nH]4)c3)ccc21 [CHIR265] (first compound 0.1 µM, partner dose 0.08 µM), the cell count in the test on WM115 was 61.6%; in the test with WM1716, 97.5%; in the test with WM1745, 60.2%; with WM3526, 72.2%; with WM3619, 97.3%; in the test with WM451Lu, 81.3%.
For the compound `CNC(=O)c1cc(Oc2ccc(NC(=O)Nc3ccc(Cl)c(C(F)(F)F)c3)cc2)ccn1` [sorafenib] + CC1(C)NC(=O)N(c2ccc([N+](=O)[O-])c(C(F)(F)F)c2)C1=O [nilutamide] (first compound 0.4 µM, partner dose 1 µM), the cell count was determined as 98.9% in the test on WM115; 104% in the test with WM1716; 105% in the test on WM1745; 86.1% in the test on WM3526; 100% in the test on WM3619; 101% with WM451Lu.
Take `C=CCNC1=C2C[C@@H](C)C[C@H](OC)[C@H](O)[C@@H](C)/C=C(\C)[C@H](OC(N)=O)[C@@H](OC)/C=C\C=C(/C)C(=O)NC(=CC1=O)C2=O` [Tanespimycin] + Nc1cccc2c1CN(C1CCC(=O)NC1=O)C2=O [lenalidomide] (first compound 0.002 µM, partner dose 1 µM): the cell count was determined as 91.7% in the test on WM115; 102% with WM1716; 95.1% in the test with WM1745; 83.4% in the test on WM3526; 74.7% in the test on WM3619; 87.2% with WM451Lu.
For `C=CCNC1=C2C[C@@H](C)C[C@H](OC)[C@H](O)[C@@H](C)/C=C(\C)[C@H](OC(N)=O)[C@@H](OC)/C=C\C=C(/C)C(=O)NC(=CC1=O)C2=O` [Tanespimycin] + COc1cc2ncnc(Nc3ccc(Oc4ccccc4)cc3)c2cc1OC [SrcI1] (first compound 0.002 µM, partner dose 2 µM), the cell count in the test with WM115 was 98.4%; in the test on WM1716, 105%; in the test with WM1745, 85%; with WM3526, 88.2%; in the test on WM3619, 95%; in the test on WM451Lu, 141%.
Take `C=CCNC1=C2C[C@@H](C)C[C@H](OC)[C@H](O)[C@@H](C)/C=C(\C)[C@H](OC(N)=O)[C@@H](OC)/C=C\C=C(/C)C(=O)NC(=CC1=O)C2=O` [Tanespimycin] + OCc1c[nH]c2ccccc12 [Indole-3-carbinol] (first compound 0.002 µM, partner dose 0.8 µM): the cell count in the test with WM115 came out at 91.1%; with WM1716, 90.6%; in the test with WM1745, 86.8%; in the test on WM3526, 98.9%; with WM3619, 93.1%; in the test on WM451Lu, 96.6%.
In the case of `CN1CCN(c2ccc3nc(-c4c(N)c5c(F)cccc5[nH]c4=O)[nH]c3c2)CC1` [Dovitinib] + COc1cc(N2CCC(N3CCN(C)CC3)CC2)ccc1Nc1ncc(Cl)c(Nc2ccccc2S(=O)(=O)C(C)C)n1 [NVP-TAE684] (first compound 0.1 µM, partner dose 0.08 µM), the cell count with WM115 was 91%; in the test on WM1716 it was 111%; with WM1745 it was 61.8%; with WM3526, 84.5%; in the test on WM3619, 92.7%; in the test with WM451Lu it was 80.9%.
As to `C=CCNC1=C2C[C@@H](C)C[C@H](OC)[C@H](O)[C@@H](C)/C=C(\C)[C@H](OC(N)=O)[C@@H](OC)/C=C\C=C(/C)C(=O)NC(=CC1=O)C2=O` [Tanespimycin] + OCCn1cc(-c2cnc3nnn(Cc4ccc5ncccc5c4)c3n2)cn1 [PF04217903] (first compound 0.002 µM, partner dose 1 µM), the cell count with WM115 was found to be 93.9%; in the test with WM1716, 82.9%; in the test with WM1745, 87.9%; with WM3526, 88%; with WM3619 it was 87.5%; in the test on WM451Lu, 90.7%.
For the compound `CS(=O)(=O)CCNCc1ccc(-c2ccc3ncnc(Nc4ccc(OCc5cccc(F)c5)c(Cl)c4)c3c2)o1` [lapatinib] + COc1ccc(Cl)c(Nc2nc3ccccc3nc2NS(=O)(=O)c2cccc(NC(=O)C(C)(C)N)c2)c1 [XL147] (first compound 0.8 µM, partner dose 0.8 µM), the cell count in the test with WM115 came to 104%; with WM1716 it was 97.5%; in the test on WM1745, 84.3%; in the test with WM3526 it was 111%; in the test on WM3619, 106%; in the test with WM451Lu it was 95.6%.
Take `C=CCNC1=C2C[C@@H](C)C[C@H](OC)[C@H](O)[C@@H](C)/C=C(\C)[C@H](OC(N)=O)[C@@H](OC)/C=C\C=C(/C)C(=O)NC(=CC1=O)C2=O` [Tanespimycin] + COc1cc(Nc2ncc(F)c(Nc3ccc4c(n3)NC(=O)C(C)(C)O4)n2)cc(OC)c1OC [Tamatinib] (first compound 0.002 µM, partner dose 0.4 µM): the cell count in the test with WM115 stood at 77.5%; with WM1716, 91.7%; in the test with WM1745 it was 62.5%; in the test with WM3526, 85.3%; in the test with WM3619, 81.4%; with WM451Lu, 89.9%.
Take `CNC(=O)c1cc(Oc2ccc(NC(=O)Nc3ccc(Cl)c(C(F)(F)F)c3)cc2)ccn1` [sorafenib] + Nc1cccc2c1CN(C1CCC(=O)NC1=O)C2=O [lenalidomide] (first compound 0.4 µM, partner dose 1 µM): the cell count with WM115 came to 107%; in the test on WM1716, 82.6%; in the test on WM1745, 84.7%; in the test with WM3526, 114%; in the test with WM3619 it was 91.4%; with WM451Lu, 103%.
`CN1CCN(c2ccc3nc(-c4c(N)c5c(F)cccc5[nH]c4=O)[nH]c3c2)CC1` [Dovitinib] + CCCS(=O)(=O)Nc1ccc(F)c(C(=O)c2c[nH]c3ncc(Cl)cc23)c1F [PLX4720] (first compound 0.1 µM, partner dose 0.08 µM): the cell count in the test with WM115 is 94.2%; with WM1716, 105%; in the test with WM1745 it was 74.1%; in the test on WM3526 it was 65.5%; in the test with WM3619, 108%; in the test with WM451Lu it was 86.7%.
As to `CNC(=O)c1cc(Oc2ccc(NC(=O)Nc3ccc(Cl)c(C(F)(F)F)c3)cc2)ccn1` [sorafenib] + NCC(=O)Nc1ccc(-n2nc(C(F)(F)F)cc2-c2ccc3c(ccc4ccccc43)c2)cc1 [OSU03012] (first compound 0.4 µM, partner dose 1 µM), the cell count worked out at 90.5% in the test with WM115; 93.6% in the test with WM1716; 87.8% in the test on WM1745; 52.3% in the test with WM3526; 119% in the test on WM3619; 56% with WM451Lu.
`CNC(=O)c1cc(Oc2ccc(NC(=O)Nc3ccc(Cl)c(C(F)(F)F)c3)cc2)ccn1` [sorafenib] + COc1cc2c(Oc3ccc4[nH]c(C)cc4c3F)ncnc2cc1OCCCN1CCCC1 [cediranib] (first compound 0.4 µM, partner dose 0.4 µM): the cell count in the test on WM115 was determined as 94.9%; in the test with WM1716 it was 110%; with WM1745 it was 95.3%; in the test on WM3526, 89.2%; in the test on WM3619 it was 105%; with WM451Lu it was 91.5%.
On to `CN1CCN(c2ccc3nc(-c4c(N)c5c(F)cccc5[nH]c4=O)[nH]c3c2)CC1` [Dovitinib] + C=CCn1c(=O)c2cnc(Nc3ccc(N4CCN(C)CC4)cc3)nc2n1-c1cccc(C(C)(C)O)n1 [MK1775] (first compound 0.1 µM, partner dose 0.02 µM), for which the cell count was 83.8% in the test on WM115; 90.7% in the test with WM1716; 67.4% with WM1745; 86.9% with WM3526; 77.6% with WM3619; 82.9% with WM451Lu.
